The text below walks through data of article PMC3551298 (Arteriosclerosis, thrombosis, and vascular biology, 2012).

The test deals with long pentraxin 3 (PTX3), full length (human, UniProt P26022 18-381). Description: SPR.
Sequence of UniProt P26022 (P26022 18-381): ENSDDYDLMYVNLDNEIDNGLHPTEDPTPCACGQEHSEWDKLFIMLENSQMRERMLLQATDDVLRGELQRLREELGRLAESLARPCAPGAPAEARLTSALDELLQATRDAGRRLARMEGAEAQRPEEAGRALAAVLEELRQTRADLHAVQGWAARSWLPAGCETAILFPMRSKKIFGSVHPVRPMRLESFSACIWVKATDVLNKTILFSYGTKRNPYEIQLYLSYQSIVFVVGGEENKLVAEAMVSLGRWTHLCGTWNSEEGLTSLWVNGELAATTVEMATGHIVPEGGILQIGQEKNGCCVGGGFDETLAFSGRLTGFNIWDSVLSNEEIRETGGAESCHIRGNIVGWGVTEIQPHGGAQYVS

B1: TSG-6_(Y94F) mutant (natural protein)
chain: not shown
As to B1, the binding result is “binds”.

B2: TSG-6_(Y47F) mutant (natural protein)
chain: not shown
Consider B2, for which the “fold lower affinity than wildtype TSG-6” value was around 6 fold.

B3: TSG-6E183S mutant (natural protein)
chain: not shown
As to B3, the binding result is “binds”.

B4: Link module domain of TSG-6 (Link_TSG6) (domain or fragment)
chain: not shown
For orientation: Kd means the concentration at which binding is half-saturated. A lower Kd goes with a tighter complex. Consider B4, for which the Kd was determined as 0.648 µM.
